This is an account of results in the RNAGym collection of RNA variant scans (doi:10.1101/gad.245936.114).

Sequences and labels used below:
B1: tRNA (parent)
chain: CUCUCGGUAGCCAAGUUGGUUUAAGGCGCAAGACUUUAAUUUAUCACUACGAAAUCUUGAGAUCGGGCGUUCGACUCGCCCCCGGGAGAUUUUUUCCUCGAGCAA

This sample is rich in variants without activity. A value given as a limit tells only on which side of the number the result lay.

The data set covers variants of B1. The data set can be described thus: nonsense suppression (GFP-seq) (ratio to wild type); higher = more function; SUP4oc tRNA, yeast GFP reporter sort-seq. In outline:
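Each variant's nonsense suppression (GFPSEQ) is a cell-share-weighted bin median GFP/RFP relative to the unmutated parent tRNA. Yeast with genome-integrated tRNA variants from a ~3% random-mutation library, a galactose-driven GFP ochre reporter and RFP were grown in raffinose/galactose medium with 80 mg/L adenine, then sorted into GFP/RFP bins for Illumina sequencing. Variants needed ≥100 reads and ≥30 cells.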
CUCUCGGUAGCCAAGUUGGUUGAAGGCGCAAGACUUUAAUUUAUCACUACGAAAUCUUGAGAUCGGGCGUUAGACUCGCCCCCGGGAGAUUUUUUCCUCGAGCAA [U22G C72A]: the nonsense suppression was at most 0.026.

For CUCUCGGUAGCCAAAUUGGUUUAAGGCGCAAGACUUUAAUUUAUCACUACGAAAUCUUGAGAUCGGGCGUUCGAAUCGCCCCCGGGAGAUUUUUUCCUCGAGCAA [G15A C75A], the nonsense suppression came to 0.854. For CUCUCGGUAGCCAAGUUGGUUUAAGGCGCAAGACUUUAAUUUAUCACUACGAAAUCUUGAGAUGGGGCGUUCGACUCGCCCCCGGCAGAUUUUUUCCUCGAGCAA [C64G G86C], the nonsense suppression was at most 0.026. For CUCUCGAUAGCCAAGUUGGUUUAAGGCGCAAGACUUUAAUUUAUCACUACGAAAUCUUGAGAUCGGGCGUUCGACUCUCCCCCGGGAGAUUUUUUCCUCGAGCAA [G7A G78U], the nonsense suppression was at most 0.026. With CUCUCGGUAGCCAAGUAGGUUUAAAGCGCGAGACUUUAAUUUAUCACUACGAAAUCUAGAGAUCGGGCGUUCGACUCGCCCCCGGGAGAUUUUUUCCUCGAGCAA [U17A G25A A30G U58A] the figure was at most 0.026; with CUCUCGGUAGCUAAGAUGGUUUAAGGCGCAAGAAUUUAAUUUAUCACUACGAAAUCUUGAGAUCGGGCGUUCGACUCGCCCCCGGGAGAUUUUUUCCUCGAGCAA [C12U U16A C34A], at most 0.026. The result for CUCUCGCUAGCCAAGUUGGUUUAAGGCGCAAGACUUUAAUUUAUCACUACGAAAUCUUGAGAUCUGGCGUUCGACUCGCCCCCGGGAGAUUUUUUCCUCGAGCAA [G7C G65U] reads at most 0.026. With CUCUCGGUGGCCAAGUUGGUUUAAGGCGCAAGGCUUUAAUUUAUCACUACGAAAUCUUGAGAUCGGGCGUUCGACUCGUCCCCGGGAGAUUUUUUCCUCGAGCAA [A9G A33G C79U] the figure was at most 0.026; with CUCUCGGUAGCCAAGUUGGUUUAAGGAGCAAGAGUUUAAUUUAUCACUACGAAAUCUUGAGAUCGGGCGUUCGUCUCGCCCCCGGGAGAUUUUUUCCUCGAGCAA [C27A C34G A74U], at most 0.026; with CUUUUGGUAGCGAAGUUGGUUUAAGGCGCAAGACUUUAAUUUAUCACUACGAAAUCUUGAGAUCGGGCGUUCCACUCGACCCCGGGAGAUUUUUUCCUCGAGCAA [C3U C5U C12G G73C C79A], at most 0.026.

For CUCUCGGUAGCCAAGUUGGUCUAAGGCGGAAGACCUUAAUUUAUCACUACGAAAUAUUGAGAUCGGGCGUUCGACUCGCCCCCGGGAGAUUUUUUCCUCGAGCAA [U21C C29G U35C C56A], the nonsense suppression was at most 0.026.

With CUCUCGGCAGCUAAGUUGGUUCAAGGCGCAAGGCUUUAAUUUAUCACUACGAAAUCUUGAGAUCGGGCGUUCGACUCUCCCCCGGGAGAUUUUUUCCUCGAGCAA [U8C C12U U22C A33G G78U], the nonsense suppression is at most 0.026.

Take CUCUCGGUAGCCAAGUUGGUUUAAGGCGCCAGACUUUAAUUUAUCACUACGAAAUCUUGAGAUCGGGCGGUCGACUCGCCCCCGGGAGAUUUUUUCCUCGAGCAA [A30C U70G]: the nonsense suppression is at most 0.026. As for CUCUCGGUCGCAAAGUUGGUUUAAGGCGCAAGACUUUAAUUUAUCACUACGAAAUCUUGAGAUCGGGCGUUCGACUCGCCCCCGGAAGAUUUUUUCCUCGAGCAA [A9C C12A G86A], the nonsense suppression was at most 0.026. The result for CUCUCGGUAGCCAAGUUGGUUUAAGGCGCAAGACUUUAAUUUAUCACUACGAAAUAUUCAGGUCGGGCGUUCGACUCUCCCCCGGGAGAUUUUUUCCUCGAGCAA [C56A G59C A62G G78U] reads at most 0.026; that for CUGUCGGGAGCCAAGUUGGUUUAAGGUGCACGACUUUAAUUUAUCACUACGAAAUCUUGAGAUCGGACGUUCGACUCGCCCCCGGGAGAUUUUUUCCUCGAGCAA [C3G U8G C27U A31C G67A], at most 0.026. In the case of CUCUCGGUAGCCAAGCUGGUUUAAGGCGCAAGACUUUAAUUUAUCACUACGAAAUCUAGAGAUCGGGCGUUCGACUCGCCCCCGGGAAAUUUUUUCCUCGAGCAA [U16C U58A G88A], the nonsense suppression is at most 0.026.

Take CUCUCGGUAGCCAAGUUGGUUGAAGGCGCAAGACUUUAAUUUAUCACUACGAAAUCUUGAGAUCGGGCGUUCGACUCGCCCCCGGGGGAUUUUUUCCUCGAGCAA [U22G A87G]: the nonsense suppression is 0.886. Consider CUCUCGGCAGCCAAGUUGGUUUAAGGCGCAAGACUUUAAUUUAUCACUACGAAAUCUUGAGAUCGGGCGUUCGCCUCGCCCCUGGGAGAUUUUUUCCUCGAGCAA [U8C A74C C83U], for which the nonsense suppression was at most 0.026. With CUCUCGAUAGCCAAGUUGGUUUAAGUCGAAAGACUUUAAUUUAUCACUACGAAAUCUUGAGAUCGGGCGUUCGACUCGCCCCCGGGAGAUUUUUUCCUCGAGCAA [G7A G26U C29A] the figure was at most 0.026; with CUCUCGGUAGCCAAGUUGGUUUAAGGCGCAAGACUUUAAUUUAUCACUACGAAACCUAGAGAUCGGGCGUUCGACUCGCCCCCGGGAGAUUUUUUCCUCGAGCAA [U55C U58A], at most 0.026. For the variant CUCUCGGAAGCCAAGUUGGUUUAAGGCGCAAGACUUUAAUUUAUCACUACGAAAUCUUGAGUUCGGGCGUUCGACUCACCCCCGGGAGAUUUUUUCCUCGAGCAA [U8A A62U G78A], the nonsense suppression was at most 0.026. With CUCUCGGUAGCCAAGCUGGUUUAAGGCGCAAGACUUUAAUUUAUCACUACGAAAUCAUGACAUCGGGCGUUCGACGCGCCCCCGGGAGAUUUUUUCCUCGAGCAA [U16C U57A G61C U76G] the figure was at most 0.026.

For CUCUCAGUAGCCAAGUUGGUUUAAGGCGCAAGACUUUAAUUUAUCACUACGAAAGCUUGAGAUCGGGCGUUCGACUCGCCCCCGGGAGAUUUUUUCCUCGAGCAA [G6A U55G], the nonsense suppression is at most 0.026. With CUCUCGGUAGCCAAGUUGGUUUAAGGCGCAAGACUUUAAUUUAUCACUACGAAAUCUUGAGAUCGGGCGUUCGACUCGACCACGGGAGAUUUUUUCCUCGAGCAA [C79A C82A] the figure was at most 0.026; with CUCUCGGUAGCCAAGUUGGUUUAAGGUCCAAGACUUUAAUUUAUCACUACGAAAUAUUGAGAUCGGGCGUUCGACUCGCCCCCGGGAGAUUUUUUCCUCGAGCAA [C27U G28C C56A], at most 0.026.

Regarding CUUUCGGUAGCCAAGUUGGUUUAAGGCGCAAGUCUUUAAUUUAUCACUACGAAAUCUUGAGAUCGGGCGUUCGACUCGCCCCCGGGAGAUUUUUUCCUCGAGCAA [C3U A33U], the nonsense suppression turned out to be 0.027.
